About 2,200 (0.71%) of roughly 310,000 compounds showed an effect of 50% or more. The effect is printed as a negative number. Some of the results follow.
Target: human ether-à-go-go-related gene (hERG) potassium channel (human, UniProt Q12809)
Assay: primary screen, population patch clamp on CHO cells stably expressing hERG

Chain of human ether-à-go-go-related gene (hERG) potassium channel (Q12809 whole entry, looked up): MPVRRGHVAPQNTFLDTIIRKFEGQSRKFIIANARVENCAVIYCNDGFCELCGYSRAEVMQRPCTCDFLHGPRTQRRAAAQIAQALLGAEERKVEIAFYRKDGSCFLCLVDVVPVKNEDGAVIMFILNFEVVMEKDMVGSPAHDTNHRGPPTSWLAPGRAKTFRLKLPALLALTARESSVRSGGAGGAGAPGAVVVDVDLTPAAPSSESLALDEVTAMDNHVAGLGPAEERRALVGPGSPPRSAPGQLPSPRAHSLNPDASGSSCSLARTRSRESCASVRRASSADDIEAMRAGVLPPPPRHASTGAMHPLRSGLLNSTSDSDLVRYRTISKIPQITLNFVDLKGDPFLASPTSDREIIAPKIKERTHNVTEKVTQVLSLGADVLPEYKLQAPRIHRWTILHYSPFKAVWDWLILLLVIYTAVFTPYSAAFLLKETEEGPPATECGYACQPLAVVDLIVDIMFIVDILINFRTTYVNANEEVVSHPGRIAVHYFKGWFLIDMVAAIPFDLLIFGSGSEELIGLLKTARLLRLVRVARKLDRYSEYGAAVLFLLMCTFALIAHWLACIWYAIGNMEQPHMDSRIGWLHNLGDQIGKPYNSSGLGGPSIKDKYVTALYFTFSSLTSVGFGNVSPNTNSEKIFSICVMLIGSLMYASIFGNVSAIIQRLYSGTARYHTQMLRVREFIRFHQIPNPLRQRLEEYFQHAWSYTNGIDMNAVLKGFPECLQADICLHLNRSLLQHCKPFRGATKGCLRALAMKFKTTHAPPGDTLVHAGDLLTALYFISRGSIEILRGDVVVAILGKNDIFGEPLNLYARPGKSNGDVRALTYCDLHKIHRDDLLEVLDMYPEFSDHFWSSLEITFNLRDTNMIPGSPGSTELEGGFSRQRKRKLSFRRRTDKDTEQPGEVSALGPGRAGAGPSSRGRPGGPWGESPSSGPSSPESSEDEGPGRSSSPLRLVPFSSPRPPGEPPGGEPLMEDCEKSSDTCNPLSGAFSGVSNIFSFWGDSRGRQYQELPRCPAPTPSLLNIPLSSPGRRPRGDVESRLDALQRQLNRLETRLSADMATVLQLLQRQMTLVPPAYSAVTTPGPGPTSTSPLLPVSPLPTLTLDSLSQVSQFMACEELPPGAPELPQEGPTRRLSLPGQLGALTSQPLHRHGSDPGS

SMILES | hERG current change (%, negative = inhibition) at 1uM [%]
C=CCNC(=S)NC(=O)c1csc([N+](=O)[O-])c1 | 13
CCn1c(=O)cc(SCC(=O)Nc2cccc(SC)c2)c2ccccc21 | 9.99
C/C(=N\NC(=O)Cc1ccccc1Cl)c1cccnc1 | 6.89
Cc1cc(OCC(=O)N2CCc3ccccc3C2)c(C)cc1Br | 18.2
CC(=O)NCC(=O)N1CCCC(C(=O)c2ccc(-c3ccccc3)c(F)c2)C1 (stereo not shown) | 3.87
COc1ccc2c(c1)[nH]c1c(=O)n(CCN(C)C)cnc12 | 8.49
O=C(Nc1ccccc1-c1nc2ccccc2[nH]1)c1sc2ccccc2c1Cl | 7.29
O=C(CN1CCOCC1)Nc1ccc(NC(=O)CN2CCOCC2)c(Cl)c1 | 4.33
CCN1CCCC1CNCc1cccc(OC)c1OCc1ccccc1.Cl (stereo not shown) | 7.91
CC(C)Cc1nnc(NC(=O)CCC(=O)N2CCN(c3ccccn3)CC2)s1 | 2.39
NNC(=O)CN1C(c2ccc(Br)cc2)=Nc2ccc(Br)cc2C1c1ccccc1 (stereo not shown) | -7.34
CC(OC(=O)c1ccncc1)C(=O)NC1CCCC1 (stereo not shown) | 7.66
S=C(c1ccc(Br)cc1)N1CCCC1 | 7.34
O=C(c1cnn2c1NC(c1ccc(Br)cc1)CC2C(F)(F)F)N1CCN2CCCC2C1 (stereo not shown) | -23.2
Cc1ccc2cc(/C=N/NC(=O)c3ccc(F)cc3)c(Cl)nc2c1 | -0.541
NC(=O)Nc1ccc(C(=O)OCC(=O)N2CCc3ccccc3C2)cc1 | 2.08
CCC(C(=O)NCc1ccccn1)n1c2ccccc2c2nc(=O)cc(C)n21 (stereo not shown) | 4.44
CCCC(=O)Nc1cc(-c2nnc(OC)c3ccccc23)ccc1N1CCOCC1 | -8.8
COc1ccc(C2CC(c3ccc(C)cc3)=NN2C(=O)c2ccccc2)cc1 (stereo not shown) | 15.2
CCN1CCCC1CNCc1cccc(OC)c1OCc1ccccc1F.Cl (stereo not shown) | -18.6

SMILES | hERG current change (%, negative = inhibition) at 1uM [%]
Cc1cccc(Nc2nc(CC(=O)O)cs2)c1 | 14
Cn1nnnc1SCc1csc(C2C(C#N)=C(N)OC3=C2C(=O)CCC3)c1 (stereo not shown) | 4.66
COc1cc(CN2CCc3c([nH]c4ccccc34)C2)cc(OC)c1 | -22.2
COc1ccc(-c2csc(NC(=O)CS(=O)(=O)c3ccc(F)cc3)n2)cc1OC | -6.48
CC1CC1C(=O)OCC(=O)Nc1cccc(F)c1 (stereo not shown) | 7.95
O=C1CC(c2ccco2)Cc2nc(NCC3CCCO3)ncc21 (stereo not shown) | 4.64
Cc1ccc2c(c1)N(CCC(=O)NCCCN1CCCC1)C(=O)C(C)O2 (stereo not shown) | 23.9
Cc1nn2c(NCc3ccccn3)c3c(nc2c1-c1ccccc1)CCC3 | 5.27
Cc1ccc(C)c(OCC(=O)Nc2ccccc2C(=O)N2CCN(C)CC2)c1 | 10.7
CC(C)(C)NC(=O)Nc1nnc(SCC(=O)NC2CCCCC2)s1 | 5.64
O=C(NCc1ccccc1)C(=O)c1cn(CC(=O)N2CCOCC2)c2ccccc12 | 15.3
Oc1cc2c(cc1CN1CCc3ccccc3C1)OCO2 | 15.1
CCc1nnc(NC(=O)C2CCN(c3nc(C)cc(C)n3)CC2)s1 | 9.93
COc1cc(C2c3c(oc4cc(C)c(C)cc4c3=O)C(=O)N2c2cc(C)ccn2)ccc1O (stereo not shown) | 5.48
O=C(NNC(=O)c1ccc(NC(=O)c2ccccc2)cc1)c1ccccc1 | 18
O=C(CO/N=C/c1ccc(OC(F)F)cc1)NCc1ccco1 | -4.07
Cc1cccc(C)c1OCCCCCNCCO | 14.8
O=C(N/N=C\c1cc2c(cc1Cl)OCO2)c1cccnc1 | 12.5
O=C(CN1CCC(n2nnc3cc(F)ccc32)CC1)NNC(=O)c1ccccc1 | 1.57
CC1CCc2sc(C(=O)N3CCC(C(N)=O)CC3)cc2C1 (stereo not shown) | 14

SMILES | hERG current change (%, negative = inhibition) at 1uM [%]
COCCN(C(=S)Nc1cccc(Cl)c1C)C(C)c1ccco1 (stereo not shown) | -0.387
Fc1ccc(-c2csc(-c3ccc(C4SCCS4)cc3)n2)cc1F | 10.8
O=C(OCc1cc(=O)oc2cc(O)ccc12)c1cc(S(=O)(=O)N2CCOCC2)ccc1F | 16.5
CC(CNS(=O)(=O)c1ccc2c(c1)CC(=O)N2C)c1ccccc1 (stereo not shown) | 5.56
CC(=O)Nc1ccc(S(=O)(=O)Nc2ccc(S(=O)(=O)Nc3ncccn3)cc2)cc1 | 8.81
O=c1cc(-c2ccccc2)[nH]c2cc(F)ccc12 | 8.14
CSCC[C@H](NC(=O)NCCc1ccc(F)cc1)C(=O)O | 7.04
CCCNC(=O)Nc1nc2ccccc2s1 | 5.3
O=C(CNC(c1ccccc1)c1ccccc1)Nc1ccccc1Br | 7.78
COCCn1c(=NC(=O)c2ccc(S(=O)(=O)N3CCc4ccccc4C3)cc2)sc2cc(S(N)(=O)=O)ccc21 | 7.07
Cc1cccc(NS(=O)(=O)c2cnc[nH]2)c1 | 7.05
COC(=O)c1ccccc1NC(=O)c1cc(-c2ccco2)on1 | 17.4
COc1cccc(CN2CCNC(=O)C2CC(=O)NC2CCCCCCC2)c1 (stereo not shown) | 15
CC(Sc1nc2ccccc2c(=O)n1C)C(=O)Nc1ccc2c(c1)OCCO2 (stereo not shown) | 12.4
Cc1c(CCO)c(=O)n(C)n1C(=O)c1ccc(Cl)cc1 | 5.55
Cc1csc(NC(=O)CSc2nncn2C)n1 | 12.3
COc1ccc(C(=O)N2CCN(S(=O)(=O)c3ccc4c(c3)OCCO4)CC2)cc1OC | -3.61
O=C1CCN(CCc2ccccc2)CCN1[C@H](CSc1ccc(Br)cc1)c1ccccc1 | -18.8
